Laboratory results from the supplement of paper PMC12632987.
Over roughly 2,300 sequences, “median log2 fold change of GCK-ALFA target abundance (FLAG IP / Myc IP barcode read proportion)” has its median near 0.095; the lowest 2% begin near -0.47. The list shows a part of the results.

B1: LC3A_28_892 (protein)
chain: SKEIEKAKKALEEAKKALAAGNTEPLVLEVDLPSTEEDVEKFLELLEEIAKVGSKKPGVSIVIDVDESVSQENIDKVIDKAEELEEKYPNVTIIIALPEN
B2: LC3A_28_1213 (protein)
chain: SPAEEAIKKAEEQFEEAIKSGEPKAIVVKITKEITKEEAEKIMKAIEEQVEKAKDIKGLAIVIDVEKGVSQEVIDLIAKKAEEIEKKYPNVTVIIALEEE
B3: LC3A_28_1273 (protein)
chain: SNIEEEIEKAKEEAKKAVEEKKPQVITIKIDGNATQEDIEKVIEAMEEIAELLKDIPNQAIVIDVDKGVKQENIDKLIDAAEEIEKKYPNVTVIIALDED
B4: LC3A_132_320 (protein)
chain: MEEKARRIREEILRLIEEAEENIDDLEKVEELVEEIRELARRAEEELTPEQVAEIFEEAAEKADEVSLKADEEGKEDVALLMDGLSVELAALSIRAEEKI
B5: LC3A_28_1042 (protein)
chain: NALEKDAKAAIAEAEKQLEKGEEAVVTLKVPKIDKETAEKIVRETLEELIKLSKKYGNKKVHVVIDFDGDQETLDAIIDVAEEAEKADPNLTVIIAYDPE
B6: LC3A_28_684 (protein)
chain: SKTEENLEKALKEAEEALKKGEPTVVTIKVYGDVTEEELEKILEALEKIAEILNKIPGSAIIIDIDKDVKEEFKDKIIDKAEELEKKYPNVTIIIALEER
B7: LC3A_28_1077 (protein)
chain: SPIEEQVEAALAELREAGARGEEAVLTITVTENATQEDIETVIAGLKEIAELAKTSGKVSVIINLDGNIPQEFIDKLADAAEEVEAANPNVTVIIALPDE
B8: LC3A_28_714 (protein)
chain: SPLEESIKKALEEAKEAAKKGEEAVIEIKVEGEITEEETEKVQKAIEEIAEITKDLKSTTIIVDVDGKVPQEHINKILDKGEEVEKKYPNVTVIFALDEN
B9: LC3A_3_1879 (protein)
chain: MEEEIEETIEELKKAGKSEETIEKFREAMELLKERGWEEALKTLIEEVRKLIDAPNEIVLDFLEEVLETIKTEDLSEEELIERIKELARLARNESEIIEL
B10: LC3A_3_1463 (protein)
chain: AEELIKEAREILEAQGWSPETIAAAEALLKALAAKGYEEAMKTVVELLKEAKGVPSDILLATFEDLLAIVETEDLTEEEVIARIKEEFAAAKAEAEIEEL
B11: LC3A_free_8_2542 (protein)
chain: TSEEAVRRVTELLDEAEEEITKKAKELGVDRLDILDLELLLGELKIEVIEAVDKSIEEIREIVEEGLAEIIAKAAEISPELAKLAEEARDEILEELEKLE
B12: LC3A_free_8_2514 (protein)
chain: SSKEFAKAAVKILDELEEKIVKLLKEKGKSRLDILEAELLIGSIKAEVISNSDKSPEEQLKIIEEGLKELVEALKELKEEVKKLVEEALKKIKEAKKKLE
B13: LC3A_17_550 (protein)
chain: KEEIKEELEKLLKELEALVKELEKYDPEAAKKLEEKLKKAKELLKKGKLEEAAKTLAEAADELANVWDSLEPKYGNKASVLSMEASGLELEAIGLLLKLE
B14: LC3A_59_2014 (protein)
chain: MEEVRKWVLEILKKFDNPEEFYEAVKKAVEELRKKYSDEELLKLVEKEAERLIKEGEDPKKMKAIVEAFKAALEIEDEEERKEEIRLILLESEIEEIDEE
B15: LC3A_3_1499 (protein)
chain: MEELLEELREVLEELGASEEQIEQALEAAKRILEKGLEETVETLIELFRENRDLSPEKILTTILITEDEVIEKNLDEESAIEYTKKILEDVAEIEEIEEE
B16: LC3A_28_730 (protein)
chain: SPLEESLEKALEEAKKAAAEGKQVLIEITVPGDATEEDVEKLIEALEEIAEILSSLENQSILINVEGGVKQEHIDKIADKAEEIEKKYPNVTVIIALDED
B17: LC3A_free_39_2217 (protein)
chain: SMEEIEKLIKEIAEEGGIDYEYVKKKIEEIKEVAGLSDEQILELVKAILEAVKAGADAKEILERILKLAKELKEEGKSPEEIAKELLEEIEDFRNLIPLD
B18: LC3A_3_1829 (protein)
chain: LDEREARLLAALRAAGHSEETIAAVRETLAALRAKGYYEAAETFIELLEENLDLPSELLLELAEEVKELVETKDLSEEELTEEIRKLARLFRNEAEIEEL
B19: LC3A_3_1817 (protein)
chain: LEERVERALELLREAGASEETLKAFREAAEALKERGYEEALKTLIELAERLLDLPSELLLELFEEVLELIKTSDDDEETIKEKIKEIASTIENESEIIEL

biological target: MAP1LC3A, Q9H492; experiment: median log2 fold change of GCK-ALFA target abundance (FLAG IP / Myc IP barcode read proportion) (log2 ratio); each designed protein is fused to an ALFA-tag nanobody in HEK293 cells to bring the named protein to FLAG-tagged glucokinase (GCK); Myc marks an untargeted standard; higher = target protein stabilised (more abundant); details: target protein: 3xFLAG-MCP-GCK-ALFA reporter; HEK293 landing pad (RPLP)
Experimental: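 LABEL-seq trans screen in HEK293 landing-pad cells. Each de novo designed 100-aa effector handle, binding the indicated effector (E3 ligase, DUB or autophagy protein), is fused to a constant NbALFA target handle and induced with 2 ug/mL doxycycline. A FLAG-MCP-GCK-ALFA target and a Myc-MCP standard reporter were transfected, and after 48 h circRNA barcodes were recovered by anti-FLAG and anti-Myc IP and sequenced. The value is the median across barcodes (at least 3 per design) of log2(FLAG/Myc read-proportion ratio), with the two transfection replicates pooled. Negative values mean degradation and positive values mean stabilisation of the target.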

Row | Binder | median log2 fold change
1 | B1 | -0.352
2 | B2 | 0.284
3 | B3 | -0.163
4 | B4 | 0.104
5 | B5 | -0.0746
6 | B6 | 0.0124
7 | B7 | 0.0615
8 | B8 | 0.219
9 | B9 | 0.0991
10 | B10 | 0.2
11 | B11 | 0.036
12 | B12 | 0.302
13 | B13 | -0.0224
14 | B14 | 0.186
15 | B15 | 0.245
16 | B16 | 0.213
17 | B17 | -0.012
18 | B18 | 0.354
19 | B19 | 0.312
